Measured values reported in patent US20260200947A1, “FUSED CYCLIC COMPOUNDS AND USE THEREOF” (Jacobio Pharmaceuticals Co., Ltd., priority 2022, published 2026).

Tests used:
[1] = system: AsPC-1 cells (K-Ras G12D)

For `C#Cc1c(F)ccc2cc(N)cc(-c3nc4c5c(nc(OC[C@@]67CCCN6C[C@H](F)C7)nc5c3F)N3[C@@H](COCC[C@@H]3C3CC3)CO4)c12` [Compound 64], which IC50 [1] is on record?
Its IC50 is 12.1 nM.

What about the IC50 (SW620 cells (K-Ras G12V)) of the same compound?
Its IC50 is 4.97 nM.
